Laboratory results reported in publication PMC9911399, “Two distinct binding modes provide the RNA-binding protein RbFox with extraordinary sequence specificity”.
Changes are numbered by the printed parent chain; changes in the protein carry UniProt numbers. The list shows a part of the results.

T1: RBFOX1 RRM RbFoxmut (Fox-RRM*) (Homo sapiens, UniProt Q9NWB1 109-208, R118D;E147R;N151S;E152T)
T1 sequence: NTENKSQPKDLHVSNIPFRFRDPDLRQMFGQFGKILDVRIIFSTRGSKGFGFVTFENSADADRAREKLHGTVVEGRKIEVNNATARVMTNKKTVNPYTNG

B1: CGAAACU (DNA:RNA)
RNA: GGGAGACCGGAAUUCAGAUUGUCCCGAAACUUUAAAUCCCGUCGUAGCCACCA
DNA 1: CAATCTGAATTCCGGTCTCCC
DNA 2: TGGTGGCTACGACGGGATT
B2: CGUGUUG (DNA:RNA)
RNA: B1 RNA with A27U, A28G, A29U, C30U, U31G
DNA 1: CAATCTGAATTCCGGTCTCCC
DNA 2: TGGTGGCTACGACGGGATT
B3: CGAGUGC (DNA:RNA)
RNA: B1 RNA with A28G, A29U, C30G, U31C
DNA 1: CAATCTGAATTCCGGTCTCCC
DNA 2: TGGTGGCTACGACGGGATT
B4: AUAUGGG (DNA:RNA)
RNA: B1 RNA with C25A, G26U, A28U, A29G, C30G, U31G
DNA 1: CAATCTGAATTCCGGTCTCCC
DNA 2: TGGTGGCTACGACGGGATT
B5: AACUUCC (DNA:RNA)
RNA: B1 RNA with C25A, G26A, A27C, A28U, A29U, U31C
DNA 1: CAATCTGAATTCCGGTCTCCC
DNA 2: TGGTGGCTACGACGGGATT
B6: GUGAUAG (DNA:RNA)
RNA: B1 RNA with C25G, G26U, A27G, A29U, C30A, U31G
DNA 1: CAATCTGAATTCCGGTCTCCC
DNA 2: TGGTGGCTACGACGGGATT
B7: CCGGUAU (DNA:RNA)
RNA: B1 RNA with G26C, A27G, A28G, A29U, C30A
DNA 1: CAATCTGAATTCCGGTCTCCC
DNA 2: TGGTGGCTACGACGGGATT
B8: CACAGAU (DNA:RNA)
RNA: B1 RNA with G26A, A27C, A29G, C30A
DNA 1: CAATCTGAATTCCGGTCTCCC
DNA 2: TGGTGGCTACGACGGGATT
B9: AUUAGAA (DNA:RNA)
RNA: B1 RNA with C25A, G26U, A27U, A29G, C30A, U31A
DNA 1: CAATCTGAATTCCGGTCTCCC
DNA 2: TGGTGGCTACGACGGGATT
B10: AUGAACC (DNA:RNA)
RNA: B1 RNA with C25A, G26U, A27G, U31C
DNA 1: CAATCTGAATTCCGGTCTCCC
DNA 2: TGGTGGCTACGACGGGATT
B11: UCGAGGG (DNA:RNA)
RNA: B1 RNA with C25U, G26C, A27G, A29G, C30G, U31G
DNA 1: CAATCTGAATTCCGGTCTCCC
DNA 2: TGGTGGCTACGACGGGATT
B12: AAUAGGC (DNA:RNA)
RNA: B1 RNA with C25A, G26A, A27U, A29G, C30G, U31C
DNA 1: CAATCTGAATTCCGGTCTCCC
DNA 2: TGGTGGCTACGACGGGATT
B13: UCUUGGU (DNA:RNA)
RNA: B1 RNA with C25U, G26C, A27U, A28U, A29G, C30G
DNA 1: CAATCTGAATTCCGGTCTCCC
DNA 2: TGGTGGCTACGACGGGATT
B14: UGAGACC (DNA:RNA)
RNA: B1 RNA with C25U, A28G, U31C
DNA 1: CAATCTGAATTCCGGTCTCCC
DNA 2: TGGTGGCTACGACGGGATT
B15: CCACAAC (DNA:RNA)
RNA: B1 RNA with G26C, A28C, C30A, U31C
DNA 1: CAATCTGAATTCCGGTCTCCC
DNA 2: TGGTGGCTACGACGGGATT
B16: UGUCGUU (DNA:RNA)
RNA: B1 RNA with C25U, A27U, A28C, A29G, C30U
DNA 1: CAATCTGAATTCCGGTCTCCC
DNA 2: TGGTGGCTACGACGGGATT
B17: ACGGCUG (DNA:RNA)
RNA: GGGAGACCGGAAUUCAGAUUGUCCACGGCUGUUAAAUCCCGUCGUAGCCACCA
DNA 1: CAATCTGAATTCCGGTCTCCC
DNA 2: TGGTGGCTACGACGGGATT
B18: AUGGACG (DNA:RNA)
RNA: B17 RNA with C26U, C29A, U30C
DNA 1: CAATCTGAATTCCGGTCTCCC
DNA 2: TGGTGGCTACGACGGGATT
B19: UUCACGC (DNA:RNA)
RNA: B17 RNA with A25U, C26U, G27C, G28A, U30G, G31C
DNA 1: CAATCTGAATTCCGGTCTCCC
DNA 2: TGGTGGCTACGACGGGATT
B20: CUGCCGG (DNA:RNA)
RNA: B17 RNA with A25C, C26U, G28C, U30G
DNA 1: CAATCTGAATTCCGGTCTCCC
DNA 2: TGGTGGCTACGACGGGATT
B21: AGGACUG (DNA:RNA)
RNA: B17 RNA with C26G, G28A
DNA 1: CAATCTGAATTCCGGTCTCCC
DNA 2: TGGTGGCTACGACGGGATT
B22: CACUUCA (DNA:RNA)
RNA: B1 RNA with G26A, A27C, A28U, A29U, U31A
DNA 1: CAATCTGAATTCCGGTCTCCC
DNA 2: TGGTGGCTACGACGGGATT
B23: AACUCGG (DNA:RNA)
RNA: B17 RNA with C26A, G27C, G28U, U30G
DNA 1: CAATCTGAATTCCGGTCTCCC
DNA 2: TGGTGGCTACGACGGGATT
B24: GACACAU (DNA:RNA)
RNA: B1 RNA with C25G, G26A, A27C, A29C, C30A
DNA 1: CAATCTGAATTCCGGTCTCCC
DNA 2: TGGTGGCTACGACGGGATT
B25: UUUACGG (DNA:RNA)
RNA: B17 RNA with A25U, C26U, G27U, G28A, U30G
DNA 1: CAATCTGAATTCCGGTCTCCC
DNA 2: TGGTGGCTACGACGGGATT
B26: GAACCCC (DNA:RNA)
RNA: B1 RNA with C25G, G26A, A28C, A29C, U31C
DNA 1: CAATCTGAATTCCGGTCTCCC
DNA 2: TGGTGGCTACGACGGGATT
B27: AACUCUC (DNA:RNA)
RNA: B17 RNA with C26A, G27C, G28U, G31C
DNA 1: CAATCTGAATTCCGGTCTCCC
DNA 2: TGGTGGCTACGACGGGATT
B28: GUUGAAA (DNA:RNA)
RNA: B17 RNA with A25G, C26U, G27U, C29A, U30A, G31A
DNA 1: CAATCTGAATTCCGGTCTCCC
DNA 2: TGGTGGCTACGACGGGATT
B29: AGAGCGG (DNA:RNA)
RNA: B17 RNA with C26G, G27A, U30G
DNA 1: CAATCTGAATTCCGGTCTCCC
DNA 2: TGGTGGCTACGACGGGATT
B30: CAAGUGA (DNA:RNA)
RNA: B1 RNA with G26A, A28G, A29U, C30G, U31A
DNA 1: CAATCTGAATTCCGGTCTCCC
DNA 2: TGGTGGCTACGACGGGATT
B31: UAUUGGA (DNA:RNA)
RNA: GGGAGACCGGAAUUCAGAUUGUCCUAUUGGAUUAAAUCCCGUCGUAGCCACCA
DNA 1: CAATCTGAATTCCGGTCTCCC
DNA 2: TGGTGGCTACGACGGGATT

What follows are binders tested against T1, RBFOX1 RRM RbFoxmut (Fox-RRM*) (assay: EMSA; HiTS-Eq, 1 nM pool, 10 min; buffer printed only for the single-RNA assays: 10 mM Tris pH 7.5, 150 mM NaCl, 3.4 mM EDTA, 0.001% NP-40, 30 C). Conditions: tags: His6 N-terminal (pET28a); label: 5' 32P.
Method in brief: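 A pool of RNA with 7 randomized nucleotides, 5′-radiolabelled and with DNA-annealed flanks, was equilibrated at 1 nM for 10 min in 50 µL with purified RbFox RRM, wild type or mutant, across increasing protein concentrations. Free RNA was separated by 8% native PAGE, excised, reverse-transcribed, barcoded by PCR and sequenced. Relative association constants were obtained from read-count changes of each RNA species versus the control reaction and normalised to the cognate motif.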

Binder | binding signal
B1 | 0.0571 KA relative to UGCAUGU
B2 | 0.167 KA relative to UGCAUGU
B3 | 0.124 KA relative to UGCAUGU
B4 | 0.0795 KA relative to UGCAUGU
B5 | 0.0641 KA relative to UGCAUGU
B6 | 0.131 KA relative to UGCAUGU
B7 | 0.0722 KA relative to UGCAUGU
B8 | 0.0737 KA relative to UGCAUGU
B9 | 0.144 KA relative to UGCAUGU
B10 | 0.118 KA relative to UGCAUGU
B11 | 0.0948 KA relative to UGCAUGU
B12 | 0.0859 KA relative to UGCAUGU
B13 | 0.126 KA relative to UGCAUGU
B14 | 0.0585 KA relative to UGCAUGU
B15 | 0.0801 KA relative to UGCAUGU
B16 | 0.0883 KA relative to UGCAUGU

Binder | binding signal
B17 | 0.165 KA relative to UGCAUGU
B18 | 0.094 KA relative to UGCAUGU
B19 | 0.0823 KA relative to UGCAUGU
B20 | 0.0599 KA relative to UGCAUGU
B21 | 0.256 KA relative to UGCAUGU
B22 | 0.116 KA relative to UGCAUGU
B23 | 0.069 KA relative to UGCAUGU
B24 | 0.0778 KA relative to UGCAUGU
B25 | 0.067 KA relative to UGCAUGU
B26 | 0.0341 KA relative to UGCAUGU
B27 | 0.0312 KA relative to UGCAUGU
B28 | 0.0929 KA relative to UGCAUGU
B29 | 0.0765 KA relative to UGCAUGU
B30 | 0.0955 KA relative to UGCAUGU
B31 | 0.0512 KA relative to UGCAUGU
